Results on 87 compounds are retold here after PMC4336329 (PLoS ONE, 2015).

Out of some 310,000 compounds screened, about 2,200 (0.71%) showed an effect of 50% or more. The effect is printed as a negative number. The list shows a part of the results.

Sequence of human ether-à-go-go-related gene (hERG) potassium channel (Q12809 whole entry, looked up): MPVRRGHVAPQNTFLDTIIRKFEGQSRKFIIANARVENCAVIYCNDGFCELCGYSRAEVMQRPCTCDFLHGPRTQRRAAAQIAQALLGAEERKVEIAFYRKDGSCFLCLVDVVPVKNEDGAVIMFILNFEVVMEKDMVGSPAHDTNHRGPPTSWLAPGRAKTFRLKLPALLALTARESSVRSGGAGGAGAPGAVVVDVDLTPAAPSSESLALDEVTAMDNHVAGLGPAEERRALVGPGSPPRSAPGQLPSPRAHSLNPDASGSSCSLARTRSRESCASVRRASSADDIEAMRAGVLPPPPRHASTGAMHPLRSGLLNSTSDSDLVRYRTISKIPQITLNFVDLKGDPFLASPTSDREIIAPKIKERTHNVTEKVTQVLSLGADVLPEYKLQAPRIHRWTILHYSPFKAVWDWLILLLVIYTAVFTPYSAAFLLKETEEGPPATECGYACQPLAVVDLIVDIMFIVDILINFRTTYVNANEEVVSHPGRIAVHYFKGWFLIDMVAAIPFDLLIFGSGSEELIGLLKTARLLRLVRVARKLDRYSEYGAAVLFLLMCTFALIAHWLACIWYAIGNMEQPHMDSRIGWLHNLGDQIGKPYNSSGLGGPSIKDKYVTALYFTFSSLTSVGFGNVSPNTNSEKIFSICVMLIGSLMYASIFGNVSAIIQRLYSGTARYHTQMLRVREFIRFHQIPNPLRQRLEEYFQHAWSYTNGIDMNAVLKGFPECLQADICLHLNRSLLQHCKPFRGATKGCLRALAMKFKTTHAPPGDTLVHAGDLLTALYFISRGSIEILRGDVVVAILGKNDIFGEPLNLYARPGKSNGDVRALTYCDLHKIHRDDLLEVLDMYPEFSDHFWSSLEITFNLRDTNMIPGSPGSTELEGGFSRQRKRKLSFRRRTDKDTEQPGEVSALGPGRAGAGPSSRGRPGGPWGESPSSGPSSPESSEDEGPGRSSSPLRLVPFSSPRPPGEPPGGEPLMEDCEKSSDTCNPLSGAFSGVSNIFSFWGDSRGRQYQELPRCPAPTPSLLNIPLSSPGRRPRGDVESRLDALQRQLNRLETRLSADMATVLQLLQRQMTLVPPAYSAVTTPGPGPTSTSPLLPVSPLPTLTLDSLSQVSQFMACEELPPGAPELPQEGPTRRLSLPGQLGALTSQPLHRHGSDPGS

This test concerns the target human ether-à-go-go-related gene (hERG) potassium channel (human, UniProt Q12809). The test is described as follows: primary screen, population patch clamp on CHO cells stably expressing hERG.
In the case of `O=C(O)c1sccc1Oc1ccc(NS(=O)(=O)c2ccc(Cl)cc2)cc1`, the “hERG current change (%, negative = inhibition) at 1uM” value came out at 13.1%. Next, `COc1ccc(Cl)cc1NCCC(O)c1ccc(F)cc1` (stereo not drawn): 5.17%; `O=C(O)c1ccc(NC(=O)c2ccccc2NC(=O)c2cccc(Br)c2)cc1`: 8.54%. As to `CC(C)(C)NC(=O)C1CCN(S(=O)(=O)c2cccc(C(F)(F)F)c2)CC1`, the “hERG current change (%, negative = inhibition) at 1uM” value was -4.68%. Regarding `Cc1ccc(CNC(=O)N[C@@H](Cc2ccccc2)C(=O)O)cc1`, the “hERG current change (%, negative = inhibition) at 1uM” value worked out at 8.8%.

`Cc1ccccc1C(=NCCCN(C)C)c1ccccc1C.Cl`: the “hERG current change (%, negative = inhibition) at 1uM” value worked out at 9.99%. Next, `CN1CCc2c(sc3c2C(=O)NC(/C=C/c2ccco2)N3)C1` (stereo not drawn): -3.03%.

As for `CCc1cc(SC#N)cc(C)c1NC(=O)CCl`, the “hERG current change (%, negative = inhibition) at 1uM” value turned out to be 19.8%. Under `CCCCNc1nc(=S)[nH]c2cc(OC)c(OC)cc12` stands -20.7%; under `CCN(CC)CCCNC(=O)c1cn(CC)c2ccc(S(=O)(=O)N(C)C3CCCCC3)cc2c1=O`, -5.96%; under `CC(=O)c1ccc(-n2c(-c3cc(-c4ccsc4)n[nH]3)n[nH]c2=S)cc1`, 7.9%. As to `Cc1ccc(S(=O)(=O)NCCc2nnc(SCc3cccnc3)n2C)cc1`, the “hERG current change (%, negative = inhibition) at 1uM” value came to 10.9%. Under `Cc1cc(OCCn2ccnc2)ccc1C(C)C` stands 3.14%; under `Cc1sc2c(c1C)c(=O)n(-c1ccc(Cl)cc1)c(=O)n2Cc1cc(=O)n2ccccc2n1`, -3.51%. Next, `CC1CCN(c2c(NCC3CCC(C(=O)NCCC4=CCCCC4)CC3)c(=O)c2=O)CC1` (stereo not drawn): 6.05%; `COc1ccccc1CCNCc1ccc(OC)c(OCc2ccccc2)c1`: -29.4%. Under `Cc1ccc2cc(CN(CCCO)S(=O)(=O)c3ccccc3F)c(=O)[nH]c2c1C` stands 8.49%. Regarding `N#CCCN(C(=O)Nc1ccc(Cl)cc1)c1ccccc1`, the “hERG current change (%, negative = inhibition) at 1uM” value came to 5.65%. Next, `CC(OC(=O)CSc1ccc(F)cc1)C(=O)NC1(C#N)CCCCC1` (stereo not drawn): 11.1%; `CCN1CCN(c2ncc(C(=O)Nc3ccccc3C(=O)OC)c3ccccc23)CC1`: -1.67%; `COC(=O)c1c(C)[nH]c(C(=O)C(C)OC(=O)c2c(C)noc2C)c1C` (stereo not drawn): 7.04%. Next, `CC1Cc2ccccc2N1C(=O)CCS(=O)(=O)c1cccs1` (stereo not drawn): 8.12%; `C(=N\c1nc2ccccc2n1CCN1CCCCC1)/c1ccc2c(c1)OCO2`: -12.2%; `COc1cccc(C2=NOC(C(=O)Nc3ccc4c(c3)OCO4)C2)c1` (stereo not drawn): 12.7%. Under `Cc1ccc(C(=O)N2CCN(c3cnn(C)c(=O)c3Cl)CC2)cc1` stands -3.67%; under `CN1C(=O)C(=Cc2ccc(Sc3ccccc3)o2)C(=O)N(C)C1=O`, 11.9%. For the compound `COC(=O)C1=C(c2ccc(OC(F)(F)F)cc2)C[C@@H]2CC[C@H]1N2C(=O)NC(C)C`, the “hERG current change (%, negative = inhibition) at 1uM” value is on record as -3.51%. Take `O=C1CS/C(=N/N=C/c2ccc(OS(=O)(=O)c3ccccc3)cc2)N1`: the “hERG current change (%, negative = inhibition) at 1uM” value came to 8.09%. Under `Cc1ccccc1-c1nc(CS(=O)CC(=O)NCc2ccc3c(c2)OCO3)c(C)o1` (stereo not drawn) stands 18.5%; under `Cc1cccc(Cc2nnc(CCC(=O)N3CCCC(CN4CCOCC4)C3)o2)c1` (stereo not drawn), 5.12%.

On to `CCN(CC)S(=O)(=O)c1ccc(N2CCCCC2)c(NC(=O)C2=COCCO2)c1`, for which the “hERG current change (%, negative = inhibition) at 1uM” value was 9.49%. `COc1cc(C2C(C#N)=C(C)NC(C)=C2C#N)cc(OC)c1OC`: the “hERG current change (%, negative = inhibition) at 1uM” value came to 14.3%. Next, `O=C(O)C1CCCCC1C(=O)Nc1ccc(Cl)cc1` (stereo not drawn): 6.02%; `O=C(Cn1ccc2ccccc2c1=O)NCC(=O)N1CCN(c2ccc(F)cc2)CC1`: 8.6%; `COc1ccc(S(=O)(=O)Nc2cc(C)ccc2OC)cc1C`: 12.2%. Under `Cc1ccc(CCNS(=O)(=O)c2cc3c(cc2C)NC(=O)CO3)cc1` stands -10.7%.

As to `CCCCC(CC)CNC(=O)Cn1c(=O)[nH]c2ccsc2c1=O` (stereo not drawn), the “hERG current change (%, negative = inhibition) at 1uM” value was found to be 4.49%. Next, `COc1ccc(Nc2ncnc3ccc([N+](=O)[O-])cc23)c(OC)c1`: 9.8%; `COC(=O)c1c(NC(NC(=O)C(C)(C)C)C(Cl)(Cl)Cl)sc2c1CCC2` (stereo not drawn): 24.2%. Under `CN1CCCC(OC(=O)c2cccc(Br)c2)C1.Cl` (stereo not drawn) stands 12.7%.

Take `Cc1ccc(N2C(=O)NC(=O)/C(=C\c3cn(CC(=O)O)c4ccccc34)C2=O)cc1`: the “hERG current change (%, negative = inhibition) at 1uM” value was found to be 13.1%. For the compound `O=C(Nc1ccc(N2CCN(Cc3ccccc3F)CC2)cc1)c1ccc([N+](=O)[O-])o1`, the “hERG current change (%, negative = inhibition) at 1uM” value is 10.1%. Under `Cc1ccccc1C(=O)Nc1nc(=S)ss1` stands 8.66%; under `c1ccc(C2Nc3ccccc3C3OCCCC23)cc1` (stereo not drawn), 20.1%. Next, `COc1ccccc1-c1c(-c2ccc(OCC(=O)NN)cc2O)n[nH]c1C(F)(F)F`: 14.2%. Under `COC(=O)c1cccc(C23CC4(C2)[C@H](CN(Cc2ccc(C(F)(F)F)cc2)[C@@H]4c2ccccc2)C3c2ccccc2)c1` (stereo partly drawn) stands -12.6%; under `O=C1C(NS(=O)(=O)c2cccs2)=C(N2CCN(c3cccc(C(F)(F)F)c3)CC2)C(=O)c2ccccc21`, 9.08%; under `O=[N+]([O-])/C=C1/CCCCCN1`, 4.5%. As for `COc1ccc(/C=C(\NC(=O)c2ccccc2)C(=O)NCCN2CCOCC2)cc1OC`, the “hERG current change (%, negative = inhibition) at 1uM” value stood at 16.4%.

For `CCOc1cc(C(c2c(C)[nH][nH]c2=O)c2c(C)[nH][nH]c2=O)ccc1OCc1ccc([N+](=O)[O-])cc1`, the “hERG current change (%, negative = inhibition) at 1uM” value was 1.55%. For `COc1ccc2c(c1)CCc1cc(C(=O)N3CCN(c4ccc(N5CCOCC5)nn4)CC3)sc1-2`, the “hERG current change (%, negative = inhibition) at 1uM” value is given as 14.2%.

For `CC(=O)c1ccccc1OC(=O)CCN1C(=O)c2ccccc2C1=O`, the “hERG current change (%, negative = inhibition) at 1uM” value came to 14.4%. Next, `CCNc1nc(NC(C)C)nc(Oc2ccc(/C=N/O)cc2)n1`: 4.01%; `CC1Sc2ccc(S(=O)(=O)N(C)Cc3ccccc3)cc2NC1=O` (stereo not drawn): 9.87%.

For `O=S(=O)(NCC1(N2CCOCC2)CCCCC1)c1ccc(F)c(F)c1F`, the “hERG current change (%, negative = inhibition) at 1uM” value stood at 3.35%.

`O=S(=O)(c1ccc(Cl)cc1)N1CCN(C2CCN(Cc3ccccc3)CC2)CC1`: the “hERG current change (%, negative = inhibition) at 1uM” value was -59%.

Turning to `Cc1ccc(NC(=O)CN(C)C(=O)COC(=O)COc2ccc(C#N)cc2)cc1`, the “hERG current change (%, negative = inhibition) at 1uM” value turned out to be 3.48%.

For the compound `c1ccc2cc(OCc3nc4ccccc4[nH]3)ccc2c1`, the “hERG current change (%, negative = inhibition) at 1uM” value worked out at 1.42%. Regarding `CCOc1ccc(COC(=O)C2CC(=O)N(CCc3ccccc3)C2)cc1OC` (stereo not drawn), the “hERG current change (%, negative = inhibition) at 1uM” value is -8.69%. Next, `CCOC(=S)SCC(=O)N1CCc2cc(OC)c(OC)cc2C1C1C(=O)CC(C)(C)CC1=O` (stereo not drawn): 5.81%; `COc1ccc(N(CCC(=O)NCCc2ccccc2)S(=O)(=O)c2ccc(C)cc2C)cc1`: 4.5%. Regarding `CC(C)Cc1cc(CNC(=O)C2CCC(=O)N(Cc3cccc(C(F)(F)F)c3)C2)on1` (stereo not drawn), the “hERG current change (%, negative = inhibition) at 1uM” value is reported as 10.2%. Next, `Cc1cc(N2C(=O)NC(=O)CC2C)c(C)cc1C(C)C` (stereo not drawn): 7.98%; `O=C(N/N=C/c1ccc(Br)s1)c1cccs1`: 7.1%. Next, `Cc1nc2c(sc3nc(N4CCOCC4)c4c(c32)CC(C)(C)OC4)c(-c2ccc(Cl)cc2)c1C(=O)O`: 0.131%; `CN1CCN(CCOc2cccc(Cl)c2)CC1.Cl`: 7.74%.

Consider `COc1ccc(CCNC(=O)c2cccn2C)cc1`, for which the “hERG current change (%, negative = inhibition) at 1uM” value was 15.7%.

As to `O=C(CC1Sc2ccccc2NC1=O)OCc1cc(=O)oc2cc(O)ccc12` (stereo not drawn), the “hERG current change (%, negative = inhibition) at 1uM” value is -6.35%.

As to `Cc1c(NC(=O)CN2CCC(C(N)=O)CC2)cccc1[N+](=O)[O-]`, the “hERG current change (%, negative = inhibition) at 1uM” value is recorded as 7.54%.

`COc1ccc(Cl)c(Cn2c(NCCCO)nc3c2c(=O)n(C)c(=O)n3C)c1`: the “hERG current change (%, negative = inhibition) at 1uM” value stood at 10.9%. For the compound `Cc1cc2nc(-c3cccnc3SCC(=O)NC3CC3)[nH]c2cc1C`, the “hERG current change (%, negative = inhibition) at 1uM” value was determined as 12.5%. With `CC(C)c1ccccc1NC(=O)c1ccc2ncsc2c1`, the “hERG current change (%, negative = inhibition) at 1uM” value is 10.4%. Under `Cc1ccccc1C([O-])=Nc1ccc[n+](-c2nc3ccccc3nc2NS(=O)(=O)c2ccccc2)c1` stands 9.51%; under `CCOC(=O)c1c(C)[nH]c(N=Nc2ccccc2)c1C`, 21.7%; under `Cc1ccc(S(=O)(=O)N(CC(=O)O)Cc2ccccc2F)cc1`, 6.83%. Next, `Cc1ccc2c(CN3CCCCC3)cc(=O)oc2c1`: 6.38%; `Cc1c(NC(=O)CSc2nnnn2-c2ccc(F)cc2)c(=O)n(-c2ccccc2)n1C`: 5.5%. Next, `O=C1NCCN/C1=C\C(=O)c1ccc(Cl)cc1`: 10.4%; `C=C(C)n1c(=O)[nH]c2ccccc21`: 17.3%; `Cc1nc2ccccc2c(=O)[nH]1`: 5.19%. In the case of `O=C(COC(=O)c1c(F)cccc1F)NCCNC(=O)COC(=O)c1c(F)cccc1F`, the “hERG current change (%, negative = inhibition) at 1uM” value is recorded as 1.66%.

For `O=C(O)c1cccnc1SCc1cccc(Br)c1`, the “hERG current change (%, negative = inhibition) at 1uM” value amounted to 19.1%. `CC(=O)C(C)n1c(CN(C)Cc2ccccc2)nc2c1c(=O)n(C)c(=O)n2C` (stereo not drawn): the “hERG current change (%, negative = inhibition) at 1uM” value stood at 5.86%. Under `O=C(NNS(=O)(=O)c1ccc(C(=O)NC2CCCC2)cc1)c1ccncc1` stands 20.9%; under `Cc1sc(NC(=O)c2oc3ccccc3c2C)c(C#N)c1C`, 7.39%. For the compound `C=CCn1c(SCc2cc(=O)n3ccsc3n2)nnc1C1CCCCC1`, the “hERG current change (%, negative = inhibition) at 1uM” value came to 2.24%. Under `Cc1cc(Nc2ncc(Cl)cc2Cl)n(-c2ccccc2)n1` stands 0.983%.
